Results published in the supplement of paper PMC4166925.
± gives the standard deviation of the averaged measurements. Over roughly 33,000 sequences, “E-score (dimensionless, -0.5 to 0.5)” has its median near -0.049; the highest 2% begin near 0.37. The list shows a part of the results.

What follows are sequences tested on T1, PmTbr T-box DNA-binding domain (GST fusion) (assay: PBM E-score of 8-mer (E-score (dimensionless, -0.5 to 0.5)); Tbr is Tbrain of the sea star Patiria miniata (Pm) or the sea urchin Strongylocentrotus purpuratus (Sp); higher = stronger binding preference; most listed sequences are background and not binding sites). Conditions: the construct has about 5 more residues each side.
T1 sequence: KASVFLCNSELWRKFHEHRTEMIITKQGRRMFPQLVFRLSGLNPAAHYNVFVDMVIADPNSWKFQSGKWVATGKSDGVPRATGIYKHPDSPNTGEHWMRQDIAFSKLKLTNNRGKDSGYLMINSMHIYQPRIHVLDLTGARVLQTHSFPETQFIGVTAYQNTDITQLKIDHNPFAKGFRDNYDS
Method in brief: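 GST-fused Tbr T-box DNA-binding domains (the whole T-box plus about five flanking residues) were expressed in BL21 E. coli at 20 °C and purified by glutathione affinity chromatography. Universal Agilent oligonucleotide arrays were made double-stranded by primer extension, incubated with 200 nM protein in PBS (pH 7.5), then scanned and quantified. Every ungapped 8-mer was scored from probe intensities. The Universal PBM Analysis Suite gave each word an enrichment E-score, averaged over duplicate arrays.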

| Sequence | PBM E-score of 8-mer |
| --- | --- |
| GCGGTAGA | -0.079 ± 0.075 |
| ACTCTTAT | -0.0869 ± 0.047 |
| CATCGCAC | 0.373 ± 0.023 |
| TCAGGACA | -0.115 ± 0.067 |
| CGCGTCTC | -0.0373 ± 0.037 |
| GACCGTTA | -0.0787 ± 0.011 |
| CTAGTCGC | 0.132 ± 0.046 |
| CAGGAACA | -0.026 ± 0.01 |
| CTAGACAA | -0.0799 ± 0.049 |
| AGGGGGGC | -0.222 ± 0.034 |
| GAAGCGGC | -0.0142 ± 0.051 |
| AACTAGCC | -0.205 ± 0.024 |
| GACGTGAA | 0.0539 ± 0.037 |
| ACAGCAAG | 0.0389 ± 0.019 |
| ACGGCCCC | -0.229 ± 0.069 |
| ATTTACAA | 0.0685 ± 0.047 |
| ATAACTTG | 0.00955 ± 0.11 |
| TCCGTCAA | -0.0448 ± 0.01 |
| AATTTCAG | -0.0884 ± 0.025 |
| AATAACCG | -0.11 ± 0.063 |
| CCTTGCCC | -0.336 ± 0.03 |
| AAAACTTA | -0.0278 ± 0.071 |
| AGCCAAGG | -0.0291 ± 0.055 |
| TACATATA | -0.294 ± 0.032 |
| TCACAGGA | 0.236 ± 0.01 |

| Sequence | PBM E-score of 8-mer |
| --- | --- |
| CCATCTTC | -0.0429 ± 0.023 |
| TGTTGTAA | 0.221 ± 0.016 |
| AGACTAGA | -0.195 ± 0.017 |
| GGTCCGAA | -0.173 ± 0.029 |
| ACACCAAC | 0.338 ± 0.0059 |
| GCGGAACC | -0.185 ± 0.06 |
| ACGCTACA | 0.0609 ± 0.005 |
| CAACGTGA | 0.168 ± 0.029 |
| ATGATGCG | 0.104 ± 0.0042 |
| CCGCGCCG | -0.2096 ± 0.00042 |
| CCCGAGTC | -0.215 ± 0.031 |
| CACACCAC | 0.406 ± 0.012 |
| AATCCTTC | -0.171 ± 0.051 |
| TACGTTCA | -0.0836 ± 0.055 |
| AAACTGCG | 0.119 ± 0.018 |
| ATGCGCGG | -0.15 ± 0.099 |
| GTTTGTTA | 0.115 ± 0.015 |
| ATTGATCG | -0.0981 ± 0.03 |
| ATGGCAGA | -0.0257 ± 0.063 |
| CACGTACG | 0.253 ± 0.017 |
| AGACGGTC | -0.184 ± 0.014 |
| TGAGAGAA | 0.0636 ± 0.079 |
| ATAGCGAA | 0.00406 ± 0.04 |
| GTCACAGA | 0.0466 ± 0.051 |
| CCCTCTAA | -0.172 ± 0.097 |

| Sequence | PBM E-score of 8-mer |
| --- | --- |
| CAACTCGC | 0.296 ± 0.027 |
| ACCTAGAT | 0.0708 ± 0.0022 |
| CGTCCGTA | -0.0501 ± 0.025 |
| CTTGTCCA | -0.0373 ± 0.036 |
| CAACAATC | 0.147 ± 0.0091 |
| CTTATTTA | -0.284 ± 0.1 |
| TAGGCCGA | -0.0616 ± 0.048 |
| GCACCGGA | 0.063 ± 0.0078 |
| CCAATACC | -0.111 ± 0.0074 |
| CAACATGC | 0.0363 ± 0.04 |
| CTGTTTTA | 0.0135 ± 0.11 |
| CGAGTGGA | 0.133 ± 0.039 |
| AAAAGGTC | -0.0764 ± 0.033 |
| CGGCGCGC | 0.161 ± 0.0044 |
| ATCCAAAC | -0.236 ± 0.05 |
| AGATTCAC | 0.0897 ± 0.086 |
| AACCAGCC | -0.0414 ± 0.071 |
| TATATGGA | -0.225 ± 0.032 |
| ACGTGTTC | 0.2198 ± 0.001 |
| TACGCTAA | 0.122 ± 0.012 |
| CAAAAAAA | -0.183 ± 0.093 |
| CATCAGCG | 0.0643 ± 0.089 |
| AGTTCCAC | -0.125 ± 0.031 |
| CCGTAGAC | -0.229 ± 0.022 |
| ACCTTCCT | 0.0979 ± 0.013 |

| Sequence | PBM E-score of 8-mer |
| --- | --- |
| AACCCCTC | 0.0579 ± 0.061 |
| CAATAACG | 0.0278 ± 0.018 |
| CCCGATAA | 0.105 ± 0.034 |
| TCTGTGAA | 0.253 ± 0.0052 |
| CCAAGTGG | 0.00965 ± 0.033 |
| TATATTCA | -0.0222 ± 0.1 |
| GTATTGCA | -0.0787 ± 0.025 |
| CGCTCGGA | -0.212 ± 0.00066 |
| CAGTTATA | -0.0853 ± 0.032 |
| TAGTACCA | 0.0636 ± 0.0024 |
| AGTCGACG | 0.181 ± 0.059 |
| AGAGCACC | -0.108 ± 0.084 |
| ATTAACTC | -0.00281 ± 0.0078 |
| TGGCGCAA | 0.244 ± 0.028 |
| GCCGTGAA | 0.293 ± 0.014 |
| GGTGTCTA | 0.376 ± 0.007 |
| AGGGTAGC | 0.0784 ± 0.044 |
| GGGTGAAA | 0.0558 ± 0.043 |
| AGATTAAG | -0.189 ± 0.04 |
| AGCCGAGC | 0.0261 ± 0.069 |
| CATGCGTC | -0.166 ± 0.023 |
| ATATCTCG | 0.0341 ± 0.0036 |
| CGGTATGA | -0.169 ± 0.057 |
| GAGCGTCA | 0.141 ± 0.01 |
| GAGCGAAC | 0.0537 ± 0.089 |

| Sequence | PBM E-score of 8-mer |
| --- | --- |
| TCAATACA | 0.0169 ± 0.05 |
| GTGTGCTA | 0.3066 ± 0.0011 |
| ATAACACC | 0.465 ± 0.0066 |
| AATGAAAG | 0.12 ± 0.046 |
| AAGAGTCA | -0.136 ± 0.015 |
| AGCGAGTG | 0.184 ± 0.025 |
| CCTAGAGG | -0.0482 ± 0.018 |
| AAGTTACT | -0.169 ± 0.019 |
| GTTGACCA | 0.0825 ± 0.023 |
| ACTATACC | -0.00992 ± 0.066 |
| CGTACGGA | -0.184 ± 0.0045 |
| ATAAGCAG | 0.0168 ± 0.015 |
| ACCCGGGC | 0.117 ± 0.01 |
| CGCGCGCA | 0.18 ± 0.001 |
| ATCCTCGC | 0.196 ± 0.043 |
| GCACGTCC | 0.239 ± 0.0056 |
| TGTTCTAA | -0.155 ± 0.042 |
| AACGGGAC | -0.0811 ± 0.027 |
| CACCCCGA | 0.259 ± 0.018 |
| GTAGGATA | -0.0979 ± 0.0081 |
| ACGAGAAG | -0.0854 ± 0.037 |
| CTAGTACC | 0.042 ± 0.052 |
| TAAGCATA | -0.226 ± 0.023 |
| ATGAAGTC | -0.15 ± 0.06 |
| AATCCACG | -0.0596 ± 0.03 |

| Sequence | PBM E-score of 8-mer |
| --- | --- |
| AAATGGTT | 0.0765 ± 0.0015 |
| AATATAAC | 0.231 ± 0.056 |
| CGCCCGAC | 0.21 ± 0.0063 |
| ATGGGCCA | -0.105 ± 0.04 |
| CAGTCCAA | -0.118 ± 0.051 |
| ACACGAGA | 0.127 ± 0.077 |
| ACCGAAAG | -0.137 ± 0.04 |
| AGACAGCA | 0.0102 ± 0.029 |
| CATACTCG | 0.0863 ± 0.088 |
| TACTACAA | -0.149 ± 0.064 |
| AAGTGTTA | 0.467 ± 0.0064 |
| ACATAAAC | -0.0157 ± 0.067 |
| AGCGGACA | -0.175 ± 0.006 |
| AATAAACC | -0.29 ± 0.032 |
| ATTAACGC | 0.235 ± 0.052 |
| TCGCCAGA | 0.0621 ± 0.0031 |
| CTACTCGA | -0.0985 ± 0.018 |
| TCACCGAA | 0.0638 ± 0.0097 |
| AATTAGCA | 0.249 ± 0.04 |
| ACGTGATA | 0.266 ± 0.037 |
| AAAAAAGA | -0.153 ± 0.093 |
| TCCGATCA | 0.026 ± 0.042 |
| GTCAGTGA | 0.122 ± 0.036 |
| ACGACGGC | -0.0644 ± 0.016 |
| CACTACGG | 0.11 ± 0.022 |

| Sequence | PBM E-score of 8-mer |
| --- | --- |
| ACATATAT | -0.00236 ± 0.0046 |
| ACTTTGCC | -0.00123 ± 0.012 |
| AGTGACGG | 0.24 ± 0.038 |
| ATTGGACG | -0.275 ± 0.013 |
| GTATATAA | -0.0836 ± 0.03 |
| AGAGAAAA | -0.129 ± 0.049 |
| CCCTTTGC | -0.148 ± 0.0026 |
| ATTTCGGC | 0.139 ± 0.012 |
| CAGCTGCC | 0.0085 ± 0.024 |
| AGTGTTTA | 0.258 ± 0.043 |
| AGCCAAGA | -0.25 ± 0.044 |
| ACAATCCA | -0.0322 ± 0.0046 |
| AACTTAGC | 0.122 ± 0.0076 |
| AGATAAAG | -0.138 ± 0.054 |
| ATGACTCG | -0.055 ± 0.11 |
| ACACGAGC | 0.0847 ± 0.0069 |
| ATTTAAAT | 0.0609 ± 0.14 |
| GGATTGCC | -0.0355 ± 0.078 |
| CAAGCATG | -0.0451 ± 0.032 |
| AATCGGGC | -0.178 ± 0.039 |
| CAATTCAA | 0.00842 ± 0.019 |
| ACCTTAAT | 0.0473 ± 0.1 |
